# Test results taken from the supplement of paper PMC11417369.
# The other results are listed elsewhere or left out.
# Tested on: PfSIP2 AP2 domain 1 (GST-tagged)
# Test: gcPBM binding intensity (ln(normalized median fluorescence intensity)); higher = stronger DNA binding
# Procedure, shortened: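 An Agilent 4 × 180k array of primer-extended double-stranded 36-bp intergenic genomic probes, with negative controls, was incubated for 1 h with GST-tagged P. falciparum DNA-binding domains expressed in E. coli. Alexa488 anti-GST antibody detected bound protein, scanned at 488 nm. Binding intensity is the highest Masliner-normalised natural-log median intensity across replicate spots of either probe orientation.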
row,Sequence,gcPBM binding intensity (ln)
1,TATCCTACATTAACAAGTACAAAGAGATCCTACGTA [XGTACX_site4252],6.83
2,AAGAATATATAGGACACACATACAATAATAAATATA [CACACA_site4119],7.25
3,AACGCCACTTCAATGGCACACACCAATTATTTTTCA [CACACA_site1026],6.81
4,TTTCTCCATATTAAAGTGCATTAATAACAAAAATAA [GTGCAC_site9934],8.82
5,TCATTCGAATAAATTGCACACATGACATCCGTTGTA [CACACA_site2587],6.99
6,ATATATATATTAATTACACACAAAAAAAAAAAAAAA [CACACA_site1165],8.31
7,AAAAAAAAAAAAAATATACACACTAATATATTTTTT [CACACA_site815],7.18
8,GTATAGAGAAAAAACTGTACTTTATATAAATATTTA [XGTACX_site3972],6.85
9,TATATACAGATATATACACACATATTTATATTTTAT [CACACA_site7734],6.98
10,TATTAATAATATAATAGTACTTTCACTGTAAATTTA [XGTACX_site6419],6.75
11,TATTCTAATATTTATACACACATAACTTTGATAAAT [CACACA_site6418],7.08
12,TATATATAGCATATTTCACACACACCGAATGAATAT [CACACA_site9182],7.19
13,ATTAATTATTGTAATTGTACATTTTATATATATCCA [XGTACX_site2105],6.93
14,TTTCTTGGGAGACATGCATGTACCAGAACAAAATAA [TGCATGCA_site272],7.23
15,TTTATTTTTATGGTCACACATATTTTTAAAACTATA [CACACA_site4372],7.22
16,TACAAAATAGTTTACACACACATATATATACATATA [CACACA_site2615],6.97
17,CACCCATAGAAACACACACACGCATAAAAAAAAAAA [CACACA_site1513],7.33
18,TAAAAACAAAAATGCACACATAATAAGCATATGTAT [CACACA_site3469],7.11
19,AACAGGTCATAATTTACACACTATATATCTTATTAT [CACACA_site6461],7.13
20,TTCATAAGAAGGAACTGTACATATTTTTCATTTTTT [XGTACX_site6770],6.97
21,TGTATACCTTAATATACACACATACAGATATATATA [CACACA_site4860],7.21
22,CGATTTTTTTTTTATTGTACTTGCTCGCATGCAATA [XGTACX_site4727],6.91

row,Sequence,gcPBM binding intensity (ln)
1,TTATATGTATATATATGTATATATATATATATATAG [TGCATGCA_negctrl_site461],7.57
2,TACAATCTTTCATTATGTACTTAACATTTTTTCTGT [XGTACX_site8752],7.04
3,ATATGCATTTTTATACGTACATATTTCTTTTCGTTA [XGTACX_site1497],7.34
4,ACAAAAGGGGAATACACACACATATATAAATAAATA [CACACA_site7111],7.11
5,CATATTTTTATGAGATGTACAATAAGAAATATGTAA [XGTACX_site2389],7.19
6,TTATCCTTGTAACAATGTACACATTATTTAATACTT [XGTACX_site1830],7.12
7,TCGTGAATGATTTAAGTACACACCGGTATTTATTCA [CACACA_site1564],6.74
8,GCATAAACGGATAATTAATTATATTATATTATATCA [CACACA_negctrl_site1519],6.9
9,ATTTATTTATATATATTATTTGTTTTAATTTACTTA [XGTACX_negctrl_site246],6.96
10,TATTGTTGTCTTTACACATGCAACAAAAGAAGAAAA [TGCATGCA_site911],7.15
11,CATACAGATGGACACACACACACACCCACAGACAAA [CACACA_site4431],7.23
12,TTTTTTTTTTGATGCACACACCTGAACGAGTTAATA [CACACA_site4329],7.78
13,TCGGGAGGGGGGAAGCGTACATATATAAAATTATTA [XGTACX_site4683],9.36
14,TATAACAAGTTATAAAGTACAAATGTTGAATTTTAT [XGTACX_site4673],6.85
15,TAAAAATTAATATAAACACACAAAAATTAATAAATA [CACACA_site381],6.85
16,TATAGATACAGATACACACACACACCGACATATATA [CACACA_site5832],6.99
17,GAATGTATATTCATGTATTTATTATTATTATTATTA [XGTACX_negctrl_site156],7.47
18,ATATGGCTAAAAGTTGCACACACACTAATAAAAAAA [CACACA_site9082],7.73
19,TATGTATTTATATTAACACACAAAAAAAAAAAAAAA [CACACA_site5070],7.05
20,ATTATTTTACTAAAAGATATTCCTTTTTTTTGTACT [CACACA_negctrl_site998],6.84
21,ATATGCCTAATAAAATGTACGTTTGTTTTATTTATT [XGTACX_site3833],7.02
22,ATATATATATTTTGGTAGCACCTCCTTTTTTTTTTT,8.73

row,Sequence,gcPBM binding intensity (ln)
1,ACAGTATCTGGTAGCTGTACGAGTCGTAGAGTGCAG [XGTACX_site2015],8.62
2,GGTAAGTACGACTTGACACACATACCCATATATATA [CACACA_site4837],7.36
3,GCGAAATATTATTATAGTATACAAATACTTCTATGA [CACACA_negctrl_site197],6.76
4,GGTGTTAAAAAATACACACACAAAAAAAAAAAAAAA [CACACA_site138],7.04
5,TTTTTTTAATTTGGTTGTACTTAAAAAAAAAACAGA [XGTACX_site5788],7.2
6,TACCTAGGATTAAAGTGTCCACATAATTTAAATAAT [XGTACX_site6736],6.96
7,TTCTTCTGTTTTATTACACACCATTTTGTGGATACA [CACACA_site5181],7.32
8,TATATAAATAGACACACACACATATAAATATAAATA [CACACA_site6503],7.02
9,TTTTTTATTATATAATTGTATATAAAATTATAATTT [GTGCAC_negctrl_site733],6.9
10,TAACTTGAATGGATATGTACATATATATATATATAT [XGTACX_site5990],9.43
11,ATTCATCTATTTTGTAGTACTAAATATATATCTACT [XGTACX_site8790],6.96
12,AATAAACATATATACACACACAAAAAAAAAAACATA [CACACA_site424],7.05
13,TAGATGTATGTACATACACACATATATAAATAAATA [CACACA_site1788],7.11
14,ATATCCTTAAAAGATACACACATATGAATATTTTGT [CACACA_site3847],7
15,TTTATACTTGTAAATGCACACATAAGATGCGACTAA [CACACA_site8662],7.1
16,GTTTGTAAATATTTTACACACATATATATATATATA [CACACA_site1075],9.2
17,TTGGGGTATCTTCCTATGCACACTTGTTATGTACTA [CACACA_site831],7.36
18,ATTATAGACACGCGCACACACAACAAAAAAAAAAAA [CACACA_site9180],7.47
19,TTGATTACTAGAAATGCACACACTGATAAAATAAGG [CACACA_site4134],8.35
20,ATACTTTTAAATTGATGTACTTTATTTATAAGGTGA [XGTACX_site6746],7.03
21,TTGCTCACAAGAAGCACACAAAAAAAGAAAAAAAAA [CACACA_site4047],6.83
22,TATAAAACGGATGAACAACAAATCATATGGCACAAA [TGCATGCA_negctrl_site608],7.23

row,Sequence,gcPBM binding intensity (ln)
1,TTCACAAAATATTATTGTACATTAAAATATTTATAT [XGTACX_site2535],6.95
2,TACATGATATATCACACACACATATAAATATATATA [CACACA_site2831],7.19
3,GAAAATTTCTTATTTTGTACACACAATAAATATTCA [XGTACX_site3267],6.99
4,GTTTTTTTATTTCATCGTACAAAAAAGAAGGCTTTA [XGTACX_site5291],7.16
5,TTATATATTTATTTATGTACATATTTTTTTATTATA [XGTACX_site6115],7.22
6,TAAATATGTATTCATACATGCACATATATATATATA [TGCATGCA_site584],9.63
7,TAAAAAATAAAAAAAGCACACACATATATATATATA [CACACA_site8567],9.41
8,AAAATAAGAAATTGAAAAATTGAAAACAAAATTAAA [CACACA_negctrl_site1285],6.65
9,ACTACTCCATTAAGTAGTACACAAAAAAAAAAAATA [XGTACX_site7031],7
10,TTACAAATGTTTTACACACACATAATTGTATCAATT [CACACA_site6147],6.78
11,TAATAAAACATATATACACACATTATAAATACATAT [CACACA_site5014],7.02
12,TATAAATAAAAACACACACACATATATATATATATA [CACACA_site2319],9.4
13,CCATTTTAAATATGCACACAGATGCACTAACCCATT [CACACA_site1883],10.7
14,TATTTTTTTTTTTAATGTACAAACAAATTATGTTGG [XGTACX_site2873],6.84
15,ATTTTTTTTATGAGGTGTACTCATATAATAACTACA [XGTACX_site5074],7.67
16,TTTTCTAAAGTAAGTTAAGATATGCAAAAAAAAGAA [GTGCAC_negctrl_site242],7.84
17,TATAAAAGGTAAGAGTGTACAAGTAAAAAATTTTTA [XGTACX_site771],6.8
18,AATAAAAATTGGTAGGCACACATGGAACTATTAAAA [CACACA_site1257],6.97
19,ATGAACTATATTAAATCACACATTATCATTTTATAT [CACACA_site4989],7.12
20,TATCCCTTAGAATACACACCCATATGAGCGTGAACT [CACACA_site2951],6.95
21,TCGTATATGGATTTTGCACACAATTATAATTTAAAT [CACACA_site868],7.64
22,TATATATTTTAAAATAGTACATATTATATAACCCAT [XGTACX_site2194],7.23
